Reference: the supplement of paper PMC8728848
The other results are listed elsewhere or left out.

Tests used:
Assay in all cases: glycan array binding signal (z-score within array); higher = stronger binding
Conditions in all cases: glycan notation: IUPAC condensed, linker removed
[1] = target: Neu5Ac(a2-3)Gal(b1-4)GlcNAc(b1-2)Man(a1-3)[Neu5Ac(a2-3)Gal(b1-4)GlcNAc(b1-2)Man(a1-6)]Man(b1-4)GlcNAc(b1-4)[Fuc(a1-6)]GlcNAc
How it was run: (§1)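 Negative Z-scores can be read as non-binding. The Z-score is calculated within each array and then averaged across arrays of one protein sequence at different concentrations or buffers and across linkers. Arrays, 3228 in all, were curated from the Consortium for Functional Glycomics database and kept only where the protein sequence was available.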

[2] = target: Neu5Ac(a2-3)Gal(b1-4)GlcNAc(b1-2)Man(a1-3)[Neu5Ac(a2-6)Gal(b1-4)GlcNAc(b1-2)Man(a1-6)]Man(b1-4)GlcNAc(b1-4)GlcNAc
How it was run: as §1

[3] = target: Neu5Ac(a2-3)Gal(b1-4)GlcNAc(b1-2)[Neu5Ac(a2-3)Gal(b1-4)GlcNAc(b1-4)]Man(a1-3)[GlcNAc(b1-4)][Neu5Ac(a2-3)Gal(b1-4)GlcNAc(b1-2)[Neu5Ac(a2-3)Gal(b1-4)GlcNAc(b1-6)]Man(a1-6)]Man(b1-4)GlcNAc(b1-4)GlcNAc
How it was run: as §1

[4] = target: Neu5Ac(a2-3)Gal(b1-4)GlcNAc(b1-2)[Neu5Ac(a2-3)Gal(b1-4)GlcNAc(b1-4)]Man(a1-3)[GlcNAc(b1-4)][Neu5Ac(a2-3)Gal(b1-4)GlcNAc(b1-4)Man(a1-6)]Man(b1-4)GlcNAc(b1-4)GlcNAc
How it was run: as §1

[5] = target: Neu5Ac(a2-3)Gal(b1-4)GlcNAc(b1-2)[Neu5Ac(a2-3)Gal(b1-4)GlcNAc(b1-6)]Man(a1-6)[Neu5Ac(a2-3)Gal(b1-4)GlcNAc(b1-2)Man(a1-3)]Man(b1-4)GlcNAc(b1-4)GlcNAc
How it was run: as §1

[6] = target: Neu5Ac(a2-3)Gal(b1-4)GlcNAc(b1-2)[Neu5Ac(a2-3)Gal(b1-4)GlcNAc(b1-6)]Man(a1-6)[Neu5Ac(a2-3)Gal(b1-4)GlcNAc(b1-2)Man(a1-3)][GlcNAc(b1-4)]Man(b1-4)GlcNAc(b1-4)GlcNAc
How it was run: as §1

[7] = target: Neu5Ac(a2-3)Gal(b1-4)GlcNAc(b1-3)Gal
How it was run: as §1

[8] = target: Neu5Ac(a2-3)Gal(b1-4)GlcNAc(b1-3)Gal(b1-3)GlcNAc
How it was run: as §1

[9] = target: Neu5Ac(a2-3)Gal(b1-4)GlcNAc(b1-3)Gal(b1-4)GlcNAc
How it was run: as §1

[10] = target: Neu5Ac(a2-3)Gal(b1-4)GlcNAc(b1-3)Gal(b1-4)GlcNAc(b1-2)Man(a1-3)[Neu5Ac(a2-3)Gal(b1-4)GlcNAc(b1-3)Gal(b1-4)GlcNAc(b1-2)Man(a1-6)]Man(b1-4)GlcNAc(b1-4)GlcNAc
How it was run: as §1

[11] = target: Neu5Ac(a2-3)Gal(b1-4)GlcNAc(b1-3)Gal(b1-4)GlcNAc(b1-3)Gal(b1-4)GlcNAc
How it was run: as §1

[12] = target: Neu5Ac(a2-3)Gal(b1-4)GlcNAc(b1-3)Gal(b1-4)GlcNAc(b1-3)Gal(b1-4)GlcNAc(b1-2)Man(a1-3)[Neu5Ac(a2-3)Gal(b1-4)GlcNAc(b1-3)Gal(b1-4)GlcNAc(b1-3)Gal(b1-4)GlcNAc(b1-2)Man(a1-6)]GalNAc
How it was run: as §1

[13] = target: Neu5Ac(a2-3)Gal(b1-4)GlcNAc(b1-3)Gal(b1-4)GlcNAc(b1-3)GalNAc
How it was run: as §1

[14] = target: Neu5Ac(a2-3)Gal(b1-4)GlcNAc(b1-3)Gal(b1-4)GlcNAc(b1-3)[Neu5Ac(a2-3)Gal(b1-4)GlcNAc(b1-3)Gal(b1-4)GlcNAc(b1-6)]GalNAc
How it was run: as §1

[15] = target: Neu5Ac(a2-3)Gal(b1-4)GlcNAc(b1-3)Gal(b1-4)GlcNAc(b1-6)[Gal(b1-3)]GalNAc
How it was run: as §1

[16] = target: Neu5Ac(a2-3)Gal(b1-4)GlcNAc(b1-3)Gal(b1-4)[Fuc(a1-3)]GlcNAc
How it was run: as §1

[17] = target: Neu5Ac(a2-3)Gal(b1-4)GlcNAc(b1-3)GalNAc
How it was run: as §1

[18] = target: Neu5Ac(a2-3)Gal(b1-4)GlcNAc(b1-3)[Neu5Ac(a2-3)Gal(b1-4)GlcNAc(b1-6)]GalNAc
How it was run: as §1

[19] = target: Neu5Ac(a2-3)Gal(b1-4)GlcNAc(b1-6)GalNAc
How it was run: as §1

[20] = target: Neu5Ac(a2-3)Gal(b1-4)GlcNAc(b1-6)[Gal(b1-3)]GalNAc
How it was run: as §1

[21] = target: Neu5Ac(a2-3)Gal(b1-4)GlcNAc(b1-6)[Neu5Ac(a2-3)Gal(b1-3)]GalNAc
How it was run: as §1

[22] = target: Neu5Ac(a2-3)Gal(b1-4)GlcNAc6S
How it was run: as §1

[23] = target: Neu5Ac(a2-3)Gal(b1-4)[Fuc(a1-3)]GlcNAc
How it was run: as §1

[24] = target: Neu5Ac(a2-3)Gal(b1-4)[Fuc(a1-3)]GlcNAc(b1-2)Man
How it was run: as §1

[25] = target: Neu5Ac(a2-3)Gal(b1-4)[Fuc(a1-3)]GlcNAc(b1-3)Gal
How it was run: as §1

[26] = target: Neu5Ac(a2-3)Gal(b1-4)[Fuc(a1-3)]GlcNAc(b1-3)Gal(b1-4)GlcNAc
How it was run: as §1

[27] = target: Neu5Ac(a2-3)Gal(b1-4)[Fuc(a1-3)]GlcNAc(b1-3)Gal(b1-4)[Fuc(a1-3)]GlcNAc(b1-3)Gal(b1-4)[Fuc(a1-3)]GlcNAc
How it was run: as §1

[28] = target: Neu5Ac(a2-3)Gal(b1-4)[Fuc(a1-3)]GlcNAc(b1-3)GalNAc
How it was run: as §1

[29] = target: Neu5Ac(a2-3)Gal(b1-4)[Fuc(a1-3)]GlcNAc(b1-6)[Gal(b1-3)]GalNAc
How it was run: as §1

[30] = target: Neu5Ac(a2-3)Gal(b1-4)[Fuc(a1-3)]GlcNAc(b1-6)[Neu5Ac(a2-3)Gal(b1-3)]GalNAc
How it was run: as §1

[31] = target: Neu5Ac(a2-3)Gal(b1-4)[Fuc(a1-3)]GlcNAc6S
How it was run: as §1

[32] = target: Neu5Ac(a2-3)Gal6S(b1-4)GlcNAc
How it was run: as §1

[33] = target: Neu5Ac(a2-3)Gal6S(b1-4)[Fuc(a1-3)]GlcNAc
How it was run: as §1

Neu5Ac(a2-3)GalNAc = target: Neu5Ac(a2-3)GalNAc
How it was run: as §1

[34] = target: Neu5Ac(a2-3)GalNAc(b1-4)GlcNAc
How it was run: as §1

[35] = target: Neu5Ac(a2-3)[GalNAc(b1-4)]Gal(b1-4)Glc
How it was run: as §1

[36] = target: Neu5Ac(a2-3)[GalNAc(b1-4)]Gal(b1-4)GlcNAc
How it was run: as §1

B1: Siglec-7-SA-PE-180 (Homo sapiens), Q9Y286 (protein)
chain: MLLLLLLPLLWGRERVEGQKSNRKDYSLTMQSSVTVQEGMCVHVRCSFSYPVDSQTDSDPVHGYWFRAGNDISWKAPVATNNPAWAVQEETRDRFHLLGDPQTKNCTLSIRDARMSDAGRYFFRMEKGNIKWNYKYDQLSVNVTALTHRPNILIPGTLESGCFQNLTCSVPWACEQGTPPMISWMGTSVSPLHPSTTRSSVLTLIPQPQHHGTSLTCQVTLPGAGVTTNRTIQLNVSYPPQNLTVTVFQGEGTASTALGNSSSLSVLEGQSLRLVCAVDSNPPARLSWTWRSLTLYPSQPSNPLVLELQVHLGDEGEFTCRAQNSLGSQHVSLNLSLQQEYTGKMRPVSGVLLGAVGGAGATALVFLSFCVIFIVVRSCRKKSARPAADVGDIGMKDANTIRGSASQGNLTESWADDNPRHHGLAAHSSGEEREIQYAPLSFHKGEPQDLSGQEATNNEYSEIKIPK
glycan array binding signal (z-score) [1]: -0.092
glycan array binding signal (z-score) [2]: -0.227
glycan array binding signal (z-score) [3]: -0.246
glycan array binding signal (z-score) [4]: -0.188
glycan array binding signal (z-score) [5]: -0.042
glycan array binding signal (z-score) [6]: -0.519
glycan array binding signal (z-score) [7]: -0.132
glycan array binding signal (z-score) [8]: -0.181
glycan array binding signal (z-score) [9]: 0.066
glycan array binding signal (z-score) [10]: 0.575
glycan array binding signal (z-score) [11]: -0.255
glycan array binding signal (z-score) [12]: 0.612
glycan array binding signal (z-score) [13]: 0.095
glycan array binding signal (z-score) [14]: -0.031
glycan array binding signal (z-score) [15]: -0.64
glycan array binding signal (z-score) [16]: -0.115
glycan array binding signal (z-score) [17]: -0.316
glycan array binding signal (z-score) [18]: -0.214
glycan array binding signal (z-score) [19]: -0.257
glycan array binding signal (z-score) [20]: -0.321
glycan array binding signal (z-score) [21]: -0.035
glycan array binding signal (z-score) [22]: 4.5
glycan array binding signal (z-score) [23]: -0.125
glycan array binding signal (z-score) [24]: 0.327
glycan array binding signal (z-score) [25]: -0.107
glycan array binding signal (z-score) [26]: -0.352
glycan array binding signal (z-score) [27]: -0.309
glycan array binding signal (z-score) [28]: 0.319
glycan array binding signal (z-score) [29]: 0.087
glycan array binding signal (z-score) [30]: 0.018
glycan array binding signal (z-score) [31]: 1.48
glycan array binding signal (z-score) [32]: 2.67
glycan array binding signal (z-score) [33]: 0.193
glycan array binding signal (z-score) (Neu5Ac(a2-3)GalNAc): 0.352
glycan array binding signal (z-score) [34]: 0.776
glycan array binding signal (z-score) [35]: -0.213
glycan array binding signal (z-score) [36]: 0.018
